Out of some 220,000 compounds screened, about 16,000 (7.3%) were called active. The shares of active, inactive and inconclusive entries below differ from those in the screen. The call rests on the fitted dose curve; in most records, active means well fitted inhibition curve with a large enough effect (not every such curve was filed as active); inconclusive means small, poorly fitted or top-dose-only effect, or another doubt; inactive means no such curve, though single readings can be large or run the other way. Potencies of inconclusive entries are left out as doubtful fits.
Target: Aldehyde dehydrogenase 1A1 (Homo sapiens) (UniProt P00352)
UniProt P00352, sequence (P00352 whole entry, looked up): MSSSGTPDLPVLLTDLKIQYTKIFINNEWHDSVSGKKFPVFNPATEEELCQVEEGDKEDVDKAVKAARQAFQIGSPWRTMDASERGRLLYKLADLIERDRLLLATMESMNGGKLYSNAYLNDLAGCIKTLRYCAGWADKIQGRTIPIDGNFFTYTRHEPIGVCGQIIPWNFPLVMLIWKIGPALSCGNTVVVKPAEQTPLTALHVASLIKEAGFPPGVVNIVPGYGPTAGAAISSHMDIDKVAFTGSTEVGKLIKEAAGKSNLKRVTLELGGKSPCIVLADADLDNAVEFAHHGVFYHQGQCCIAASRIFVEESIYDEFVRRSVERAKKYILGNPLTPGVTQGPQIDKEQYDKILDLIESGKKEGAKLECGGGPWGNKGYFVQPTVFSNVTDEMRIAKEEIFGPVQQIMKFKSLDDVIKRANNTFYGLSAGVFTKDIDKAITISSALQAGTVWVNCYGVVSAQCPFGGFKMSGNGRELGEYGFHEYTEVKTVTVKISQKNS
Experiment: qHTS Assay for Inhibitors of Aldehyde Dehydrogenase 1 (ALDH1A1);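 on activity, negative = inhibition: plate controls were no enzyme wells and a reference inhibitor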
Conditions: Purified ALDH1A1, NADH fluorescence, propionaldehyde substrate; series mostly up to 75.3 µM; activity, negative = inhibition: at the top concentration
Potency means the concentration at half of the fitted maximal effect; tags describe the fitted curve by direction and shape.

| Structure (SMILES) | Potency | activity, negative = inhibition |
| --- | --- | --- |
| Cc1ccccc1CN1CCc2c(OCC(=O)N3CCCCC3)cccc2C1=O | inconclusive [inhibitor, single point] | – |
| CN(c1ccccc1)S(=O)(=O)c1cccc(NC(=O)Nc2ccc(Cl)cc2C#N)c1 | inconclusive [inhibitor, single point] | – |
| O=C(CCCSc1nnc(SCCCC(=O)c2ccc(F)cc2)s1)c1ccc(F)cc1 | inconclusive [inhibitor, single point] | – |
| COc1ccc(OC)c(CN2CCN(Cc3cccc4ccccc34)CC2)c1 | inconclusive [inhibitor, single point] | – |
| CCN(CC)C(=O)CSc1nnc(SCc2ccc(Cl)cc2)s1 | inconclusive [inhibitor, single point] | – |
| Cc1cccc(C(C)C)c1NC(=O)COC(=O)COc1ccc2c(C)cc(=O)oc2c1 | inconclusive [inhibitor, partial curve] | – |
| Cc1cc(NC(=O)CSc2nc3cc(Cl)ccc3c(=O)n2CC(C)C)no1 | inconclusive [inhibitor, single point] | – |
| Cc1ccc(NC(=O)COC(=O)C2CCC(=O)N2)c([N+](=O)[O-])c1 (configuration not stated) | inconclusive [inhibitor, single point] | – |
| Cc1ccc(C(=O)Nc2c(C)cc(-c3ccc(Cl)cc3)oc2=O)cc1 | inconclusive [inhibitor, partial curve] | – |
| Cc1ccc(S(=O)(=O)N(C)CC(=O)N2CCN(C(=O)c3ccco3)CC2)cc1 | inconclusive [inhibitor, single point] | – |
| COc1cccc(-c2nc(NCc3cccs3)c3ccccc3n2)c1 | – | inactive: -5.95% |
| COC(=O)N1CC=CC1(C)C(=O)NCc1ccc(C)o1 (configuration not stated) | inconclusive [inhibitor, partial curve] | – |
| Cn1nnnc1SCC1=C(C(=O)O)N2C(=O)C(NC(=O)C(OC=O)c3ccccc3)C2SC1 (configuration not stated) | – | inactive: -13.7% |
| CCCCCc1ccc(-c2ccc(/C=C/C(=O)O)cc2)nc1 | inconclusive [inhibitor, single point] | – |
| O=C(c1cccc(Br)c1)N1CCN(C(=O)N2CCOCC2)CC1 | – | inactive: -4.39% |
| Cc1ccccc1NCc1ccc(O)c2ncccc12 | active: 3.98 µM | – |
| O=C(Cn1cc(C(F)(F)F)ccc1=O)N/N=C/c1ccc(Cl)cc1Cl | – | inactive: 2.83% |
| CCNc1c2c(nc3ccccc13)CC(C)(C)CC2=O | active: 14.1 µM | – |
| C=CCOC(=O)C1=C(C)NC(SCC(=O)Nc2ccc(C)c(Cl)c2)=C(C#N)C1c1ccco1 (configuration not stated) | inconclusive [inhibitor, single point] | – |
| O=C(Nc1ccccc1)C(=O)Nc1ccccn1 | – | inactive: -3.68% |
| CCn1c(C)nc2cc(C(=O)NNC(=O)c3ccc(Cl)nc3)ccc21 | – | inactive: 9.34% |
| C(=N/Nc1ccccn1)/c1cccnc1 | – | inactive: 2.45% [at 13.5 µM] |
| Cn1c(SCC(=O)c2ccc(F)cc2)nnc1-c1ccccc1N | – | inactive: -8.77% |
| CCN(c1ccc(NC(=O)COC(=O)CCc2nc3ccccc3n2-c2ccccc2)cc1)C(C)C | inconclusive [inhibitor, single point] | – |

| Structure (SMILES) | Potency | activity, negative = inhibition |
| --- | --- | --- |
| Cc1ccc(C(C)C)cc1C(=O)CC1(O)C(=O)N(C)c2ccccc21 (configuration not stated) | – | inactive: -4.36% |
| C[N+]1(CC(=O)Nc2ccc(F)cc2)CCN(C(=O)c2ccco2)CC1 | – | inactive: -7.52% |
| COc1cccc(-n2nnc3c(=O)n(Cc4c(F)cccc4Cl)cnc32)c1 | inconclusive [inhibitor, partial curve, poor fit] | – |
| N#CC1=C(N)C2=CCCC[C@H]2[C@H](c2ccc(Br)cc2)C1(C#N)C#N | active: 12.6 µM | – |
| Cc1nn(Cc2ccccc2)c2c1C(c1ccc(Cl)cc1)C(C#N)=C(N)O2 (configuration not stated) | inconclusive [inhibitor, partial curve] | – |
| COc1ccc(NC(=S)N2CCN(Cc3ccccc3)CC2)cc1 | inconclusive [inhibitor, single point] | – |
| O=C1c2ccccc2C(=O)C1C1=Nc2ccccc2NC(c2ccccc2)C1 (configuration not stated) | inconclusive [inhibitor, single point] | – |
| COc1cccc(/C=C/C(=O)c2ccc(C)c([N+](=O)[O-])c2)c1 | active: 7.08 µM | – |
| Clc1cccc(CSc2nnc([C@@H]3CCCN3)o2)c1 | inconclusive [inhibitor, single point] | – |
| CCOC(=O)C1(Cc2ccccc2)CCN(Cc2csc(C(C)=O)c2)CC1 | inconclusive [inhibitor, single point] | – |
| Cc1cc(Nc2ccccc2C(=O)O)nc2nc3ccccc3c(=O)n12 | inconclusive [inhibitor, partial curve, poor fit] | – |
| CCC=O | inconclusive [inhibitor, single point] | – |
| COc1ccc(-c2cc(C#N)nc(N3CCNCC3)n2)cc1 | inconclusive [inhibitor, single point] | – |
| Oc1ccc(C2=NNC(=NCc3ccc4c(c3)OCO4)SC2)c(O)c1 | inconclusive [inhibitor, single point] | – |
| CN(CC(=O)Nc1ccc(Cl)cc1)c1ccc(S(=O)(=O)N2CCCCC2)cc1[N+](=O)[O-] | active: 11.2 µM | – |
| COc1ccc(COc2ccccc2C(N)=O)cc1F | – | inactive: 1.91% |
| CCC(C)(C)n1nnnc1C(c1ccc2ncccc2c1)N1CCN2CCCC2C1 (configuration not stated) | – | inactive: 7.45% |
| O=C(O)CCCC(=O)Nc1ccc(Oc2ncnc3cc(Cl)ccc23)nc1 | inconclusive [inhibitor, single point] | – |
| c1cc(CSc2ncnc3nc[nH]c23)ccn1 | – | inactive: 5.81% [at 13.5 µM] |
| CC(=O)N1CCN(C(=S)c2ccc(Cl)cc2)CC1 | active: 17.8 µM | – |
| Fc1cccc(-c2nnn3c2nc(Cl)c2ccccc23)c1 | inconclusive [inhibitor, single point] | – |
| CCn1nnnc1SCC(=O)c1ccc(C)cc1C | inconclusive [inhibitor, single point] | – |
| Nc1c(Cl)cc(Cl)cc1C(=O)OCC(=O)N1CCOCC1 | inconclusive [inhibitor, partial curve] | – |

— PubChem BioAssay AID1030 (National Center for Advancing Translational Sciences (NCATS), 2008)
